# Laboratory results from the supplement of paper PMC6451100.
# Some of the results follow. Values come from read counts of a selection and are noisy.
# Test system: Drosophila AGO1 (endogenous, S2-R+ lysate)
# Assay: AGO1 loading enrichment factor (IP read count / input read count, not library-size normalised) (ratio); higher = more efficient loading into AGO1
# Settings: randomized region: 5' 5N of miR-317 loop
# Method: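 HISSA: 5'-phosphorylated, 32P-labelled 20-nt ssRNA oligos (miR-317 loop, first 5 nt randomized, constant 3' part TGAAATGCAAGCAAG as printed in methods; DNA letters for RNA) incubated 1 h at 25°C in S2-R+ cell lysate. Endogenous AGO1 was immunopurified with anti-AGO1 and bound oligos were sequenced after splinted ligation.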
# 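Also: S2-R+ lysate came from cells stably expressing FLAG-tagged AGO2, enrichment per 5N variant computed with FASTAptamer, reads lacking the constant 3′ segment discarded.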
row,Sequence,AGO1 loading enrichment factor
1,CACGTTGAAATGCAAGCAAG,0.0506
2,TGACCTGAAATGCAAGCAAG,0.147
3,ACTGGTGAAATGCAAGCAAG,0.153
4,GAATCTGAAATGCAAGCAAG,0.135
5,GCTCTTGAAATGCAAGCAAG,0.0351
6,TCGGCTGAAATGCAAGCAAG,0.217
7,ATTATTGAAATGCAAGCAAG,0.119
8,ACCCATGAAATGCAAGCAAG,0.171
9,CTGGTTGAAATGCAAGCAAG,0.151
10,GTCAGTGAAATGCAAGCAAG,0.16
11,AGTCGTGAAATGCAAGCAAG,0.111
12,TCTTTTGAAATGCAAGCAAG,0.514
13,GTCACTGAAATGCAAGCAAG,0.216
14,TCTAATGAAATGCAAGCAAG,0.242
15,CTCATTGAAATGCAAGCAAG,0.196
16,AATTATGAAATGCAAGCAAG,0.126
17,TGTTCTGAAATGCAAGCAAG,0.0526
18,GTGAATGAAATGCAAGCAAG,0.62
19,CTCGCTGAAATGCAAGCAAG,0.00511
20,ACTTGTGAAATGCAAGCAAG,0.204
21,GATGCTGAAATGCAAGCAAG,0.0443
22,TCCCTTGAAATGCAAGCAAG,0.867
23,AACGCTGAAATGCAAGCAAG,0.135
24,GAAGATGAAATGCAAGCAAG,0.194
25,ACGATTGAAATGCAAGCAAG,0.191

row,Sequence,AGO1 loading enrichment factor
1,GACCTTGAAATGCAAGCAAG,0.131
2,GTACGTGAAATGCAAGCAAG,0.0928
3,GCTATTGAAATGCAAGCAAG,0.18
4,CTCTGTGAAATGCAAGCAAG,0.0084
5,CCTTATGAAATGCAAGCAAG,0.179
6,TGCTGTGAAATGCAAGCAAG,0.0632
7,CTTTGTGAAATGCAAGCAAG,0.032
8,GTGTATGAAATGCAAGCAAG,0.0596
9,GGCTCTGAAATGCAAGCAAG,0.176
10,CGAACTGAAATGCAAGCAAG,0.113
11,GCCACTGAAATGCAAGCAAG,0.123
12,TATTCTGAAATGCAAGCAAG,0.311
13,CTTCCTGAAATGCAAGCAAG,0.00426
14,TTTCATGAAATGCAAGCAAG,0.765
15,GACTCTGAAATGCAAGCAAG,0.301
16,AATGATGAAATGCAAGCAAG,0.13
17,TGGACTGAAATGCAAGCAAG,0.261
18,CCTCCTGAAATGCAAGCAAG,0.0752
19,TAGCCTGAAATGCAAGCAAG,0.487
20,ACCGCTGAAATGCAAGCAAG,0.13
21,GCCTTTGAAATGCAAGCAAG,0.0128
22,TCCACTGAAATGCAAGCAAG,0.362
23,GAGGATGAAATGCAAGCAAG,1.08
24,CGGCATGAAATGCAAGCAAG,0.0417
25,ATTACTGAAATGCAAGCAAG,0.257

row,Sequence,AGO1 loading enrichment factor
1,GCAGATGAAATGCAAGCAAG,0.048
2,AACCATGAAATGCAAGCAAG,0.194
3,CCCTGTGAAATGCAAGCAAG,0.0379
4,GCATTTGAAATGCAAGCAAG,0.00552
5,CTTACTGAAATGCAAGCAAG,0.0137
6,AGGCCTGAAATGCAAGCAAG,0.178
7,GATCCTGAAATGCAAGCAAG,0.247
8,CGTGATGAAATGCAAGCAAG,0.105
9,TTTTGTGAAATGCAAGCAAG,1.02
10,CCAATTGAAATGCAAGCAAG,0.0647
11,TTCCTTGAAATGCAAGCAAG,0.91
12,CACGATGAAATGCAAGCAAG,0.196
13,CGATGTGAAATGCAAGCAAG,0.107
14,CGCCCTGAAATGCAAGCAAG,0.4
15,CGACTTGAAATGCAAGCAAG,0.144
16,GTGTGTGAAATGCAAGCAAG,0.0463
17,TCATTTGAAATGCAAGCAAG,0.383
18,ATTCGTGAAATGCAAGCAAG,0.213
19,ATGGATGAAATGCAAGCAAG,0.338
20,AAAGTTGAAATGCAAGCAAG,0.112
21,AAATGTGAAATGCAAGCAAG,0.154
22,GGTCCTGAAATGCAAGCAAG,0.269
23,TTGACTGAAATGCAAGCAAG,0.955
24,ACGTATGAAATGCAAGCAAG,0.162
25,GAGTGTGAAATGCAAGCAAG,0.115

row,Sequence,AGO1 loading enrichment factor
1,TTTGGTGAAATGCAAGCAAG,0.778
2,CAGAATGAAATGCAAGCAAG,0.0712
3,GTAGATGAAATGCAAGCAAG,0.137
4,CGATATGAAATGCAAGCAAG,0.0336
5,CTCCGTGAAATGCAAGCAAG,0.168
6,CCGGGTGAAATGCAAGCAAG,0.48
7,AAGTGTGAAATGCAAGCAAG,0.109
8,ACTATTGAAATGCAAGCAAG,0.182
9,GTCTCTGAAATGCAAGCAAG,0.0528
10,TGTTGTGAAATGCAAGCAAG,0.321
11,TTCCGTGAAATGCAAGCAAG,0.449
12,CCTATTGAAATGCAAGCAAG,0.111
13,CCATCTGAAATGCAAGCAAG,0.168
14,ACCGTTGAAATGCAAGCAAG,0.0616
15,TCATGTGAAATGCAAGCAAG,0.119
16,CGTGCTGAAATGCAAGCAAG,0.00377
17,GACCGTGAAATGCAAGCAAG,0.457
18,GCGGCTGAAATGCAAGCAAG,0.5
19,GGGCTTGAAATGCAAGCAAG,0.109
20,GAGGGTGAAATGCAAGCAAG,1.36
21,CAACATGAAATGCAAGCAAG,0.114
22,CCCATTGAAATGCAAGCAAG,0.0352
23,GGATCTGAAATGCAAGCAAG,0.0948
24,TGTCATGAAATGCAAGCAAG,0.1
25,GTGGGTGAAATGCAAGCAAG,1.25

row,Sequence,AGO1 loading enrichment factor
1,CTTCTTGAAATGCAAGCAAG,0.0892
2,CACAATGAAATGCAAGCAAG,0.16
3,TTACGTGAAATGCAAGCAAG,0.411
4,ATGACTGAAATGCAAGCAAG,0.282
5,CGGTCTGAAATGCAAGCAAG,0.106
6,GCCTCTGAAATGCAAGCAAG,0.032
7,GTCGGTGAAATGCAAGCAAG,0.277
8,ACATTTGAAATGCAAGCAAG,0.109
9,TGACTTGAAATGCAAGCAAG,0.0161
10,TACCCTGAAATGCAAGCAAG,2.78
11,GTATCTGAAATGCAAGCAAG,0.0655
12,CGAATTGAAATGCAAGCAAG,0.0726
13,AGGGGTGAAATGCAAGCAAG,1.95
14,CACTGTGAAATGCAAGCAAG,0.0894
15,GGCTATGAAATGCAAGCAAG,0.188
16,CTACCTGAAATGCAAGCAAG,0.262
17,GTAGGTGAAATGCAAGCAAG,0.369
18,GAAGTTGAAATGCAAGCAAG,0.135
19,GGTTCTGAAATGCAAGCAAG,0.204
20,TTAGCTGAAATGCAAGCAAG,0.0536
21,CTGTTTGAAATGCAAGCAAG,0.0154
22,GTGGTTGAAATGCAAGCAAG,0.234
23,ACCTGTGAAATGCAAGCAAG,0.0686
24,TGGCTTGAAATGCAAGCAAG,0.0137
25,ATGTGTGAAATGCAAGCAAG,0.109

row,Sequence,AGO1 loading enrichment factor
1,AGCATTGAAATGCAAGCAAG,0.0986
2,ACGCTTGAAATGCAAGCAAG,0.00687
3,GCGACTGAAATGCAAGCAAG,6.65
4,TACCGTGAAATGCAAGCAAG,1.37
5,CGAAATGAAATGCAAGCAAG,0.0918
6,ACCATTGAAATGCAAGCAAG,0.108
7,ACGAGTGAAATGCAAGCAAG,0.128
8,TCCGCTGAAATGCAAGCAAG,0.224
9,CCCCATGAAATGCAAGCAAG,0.413
10,CGACATGAAATGCAAGCAAG,1.42
11,AGAGTTGAAATGCAAGCAAG,0.0833
12,CGGCTTGAAATGCAAGCAAG,0.0773
13,GAATATGAAATGCAAGCAAG,0.132
14,ACGGATGAAATGCAAGCAAG,0.376
15,TCTCGTGAAATGCAAGCAAG,0.347
16,GCGCTTGAAATGCAAGCAAG,0.0511
17,CGAGCTGAAATGCAAGCAAG,0.00327
18,GGTCTTGAAATGCAAGCAAG,0.00932
19,GCCTATGAAATGCAAGCAAG,0.113
20,AGGTATGAAATGCAAGCAAG,0.072
21,AGTTCTGAAATGCAAGCAAG,0.182
22,TGATATGAAATGCAAGCAAG,0.139
23,ATCGGTGAAATGCAAGCAAG,0.211
24,TCCTCTGAAATGCAAGCAAG,1.04
25,TATCGTGAAATGCAAGCAAG,0.504

row,Sequence,AGO1 loading enrichment factor
1,GGTGGTGAAATGCAAGCAAG,1.63
2,CTTAGTGAAATGCAAGCAAG,0.0367
3,AGGCGTGAAATGCAAGCAAG,0.113
4,ACACATGAAATGCAAGCAAG,0.212
5,CTACTTGAAATGCAAGCAAG,0.16
6,CCCCTTGAAATGCAAGCAAG,0.00279
7,GTTAATGAAATGCAAGCAAG,0.148
8,GTCTTTGAAATGCAAGCAAG,0.0521
9,GGGTTTGAAATGCAAGCAAG,0.112
10,GTTAGTGAAATGCAAGCAAG,0.0997
11,CCCTATGAAATGCAAGCAAG,0.106
12,CGGGTTGAAATGCAAGCAAG,0.255
13,TTTAATGAAATGCAAGCAAG,0.925
14,GGCCATGAAATGCAAGCAAG,0.304
15,CCGTTTGAAATGCAAGCAAG,0.148
16,TGAGGTGAAATGCAAGCAAG,0.39
17,TCGGGTGAAATGCAAGCAAG,0.525
18,AAGATTGAAATGCAAGCAAG,0.113
19,ATGCGTGAAATGCAAGCAAG,0.401
20,ATCGATGAAATGCAAGCAAG,0.282
21,TCATCTGAAATGCAAGCAAG,0.194
22,TCGTCTGAAATGCAAGCAAG,0.398
23,GGTTATGAAATGCAAGCAAG,0.145
24,CTCCCTGAAATGCAAGCAAG,0.102
25,GCGAGTGAAATGCAAGCAAG,0.219

row,Sequence,AGO1 loading enrichment factor
1,GCCCTTGAAATGCAAGCAAG,0.073
2,CGCTATGAAATGCAAGCAAG,0.0236
3,CAACGTGAAATGCAAGCAAG,0.14
4,CAATATGAAATGCAAGCAAG,0.0636
5,TCTACTGAAATGCAAGCAAG,0.558
6,GTGGCTGAAATGCAAGCAAG,0.0878
7,ATCGTTGAAATGCAAGCAAG,0.0802
8,GATCTTGAAATGCAAGCAAG,0.0841
9,AAAAGTGAAATGCAAGCAAG,0.131
10,TGCGATGAAATGCAAGCAAG,0.177
11,CCCTTTGAAATGCAAGCAAG,0.00466
12,CACACTGAAATGCAAGCAAG,0.0733
13,TCTTCTGAAATGCAAGCAAG,0.628
14,TCTCCTGAAATGCAAGCAAG,1.04
15,CGAGTTGAAATGCAAGCAAG,0.0578
16,TAGAGTGAAATGCAAGCAAG,0.463
17,GATTATGAAATGCAAGCAAG,0.0903
18,TACGTTGAAATGCAAGCAAG,0.457
19,GATAGTGAAATGCAAGCAAG,0.133
20,CCCGCTGAAATGCAAGCAAG,0.0541
21,CATGATGAAATGCAAGCAAG,0.0772
22,CCAGTTGAAATGCAAGCAAG,0.125
